# According to PubChem BioAssay AID488969 (Vanderbilt High Throughput Screening Facility, 2010):
# The full ranking holds about 110,000 compounds; the median of “z-score” is about -0.1, and the highest 2% start at about 2. This is one part of the list. The source made the active and inactive calls.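 The calls were made as follows: active = z-score in the third read window above 3 or below -3; inactive = the rest.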 Residues, ends and D or L forms follow the SMILES beside them. *: point of attachment. Cbz = O=C(OCc1ccccc1)*
# Target: Metabotropic glutamate receptor 8 (Rattus norvegicus) (UniProt P70579)
# Test: rat mGluR8 modulators via GIRK flux, primary screen, cell-based, thallium flux, HTS (AID 488969)
# Details: HEK293 rat mGluR8, GIRK (G protein-gated inwardly rectifying potassium channel) thallium flux, FluoZin2; at 10 µM; stronger effect = higher value; submaximal glutamate (EC20) added with thallium
# Sequence of UniProt P70579 (P70579 whole entry, looked up): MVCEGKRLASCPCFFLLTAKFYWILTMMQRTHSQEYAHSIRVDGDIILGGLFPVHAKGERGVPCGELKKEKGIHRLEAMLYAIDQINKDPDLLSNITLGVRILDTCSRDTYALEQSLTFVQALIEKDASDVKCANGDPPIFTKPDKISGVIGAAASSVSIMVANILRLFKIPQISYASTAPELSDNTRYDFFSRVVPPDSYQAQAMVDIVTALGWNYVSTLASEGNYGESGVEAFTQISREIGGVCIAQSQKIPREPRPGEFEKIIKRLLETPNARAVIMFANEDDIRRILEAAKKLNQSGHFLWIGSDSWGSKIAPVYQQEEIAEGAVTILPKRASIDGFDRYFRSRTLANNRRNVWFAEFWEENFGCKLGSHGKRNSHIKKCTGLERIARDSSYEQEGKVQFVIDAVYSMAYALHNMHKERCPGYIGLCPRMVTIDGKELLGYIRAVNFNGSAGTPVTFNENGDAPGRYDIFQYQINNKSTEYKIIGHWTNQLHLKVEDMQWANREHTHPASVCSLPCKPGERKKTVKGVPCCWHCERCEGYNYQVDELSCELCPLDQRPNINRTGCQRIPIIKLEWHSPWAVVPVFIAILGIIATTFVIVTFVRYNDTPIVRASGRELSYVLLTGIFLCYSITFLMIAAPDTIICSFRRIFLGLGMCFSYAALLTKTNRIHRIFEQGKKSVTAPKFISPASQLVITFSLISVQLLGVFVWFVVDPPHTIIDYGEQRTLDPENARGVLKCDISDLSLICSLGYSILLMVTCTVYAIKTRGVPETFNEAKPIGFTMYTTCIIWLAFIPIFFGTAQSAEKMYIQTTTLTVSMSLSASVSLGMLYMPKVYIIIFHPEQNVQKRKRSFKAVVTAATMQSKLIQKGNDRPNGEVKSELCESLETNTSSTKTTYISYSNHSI
row,SMILES,z-score
1,Cc1ccc(Nc2nc(-c3sc(NC(=O)c4ccccc4)nc3C)cs2)cc1,-0.0244
2,Cc1ccc(NC(=O)/C(C#N)=C/c2ccc(Sc3nc(C)cc(C)n3)o2)cc1,-0.1
3,COc1ccc(-c2nnc(SCc3nc4ccccc4s3)n2C(C)C)cc1,-1.13
4,CCCn1c(N2CCN(Cc3cccc(C)c3)CC2)nc2c1c(=O)[nH]c(=O)n2C,-0.0878
5,O=c1cc(CSc2nnc(-c3ccccc3)o2)c2ccccc2[nH]1,0.487
6,CC1CCN(c2nc3c(c(=O)n(C)c(=O)n3C)n2CCSc2nc3ccccc3o2)CC1,-0.456
7,Cc1ccc(C(C)C)cc1OCC(=O)N/N=C/c1ccc2c(c1)OCCO2,-0.0651
8,CN(C)c1ccc(C(c2nnnn2C(C)(C)C)N2CCN(C(=O)c3ccco3)CC2)cc1 (stereo unspecified),0.29
9,OC(CNCc1ccco1)COc1ccccc1 (stereo unspecified),0.624
10,Cc1nnc(SCc2ccccc2)n(N)c1=O,0.09
11,CCN(CC)C(=O)CSc1nnc(-c2ccco2)o1,0.153
12,CCOC(=O)CN1CC23C=CC(O2)C(C(=O)Nc2ccc(C(C)=O)cc2)C3C1=O (stereo unspecified),-0.322
13,CSc1ccccc1C(=O)NCCSC(C)(C)C,0.626
14,O=C(NCCCN1CCCC1=O)c1ccc2c(=O)n(Cc3ccco3)c(=S)[nH]c2c1,-0.215
15,Clc1cccc(Cl)c1COc1ccncc1,-0.502
16,COc1ccccc1-c1nc(-c2ccncc2)no1,0.393
17,O=C(NC1CCCCC1)c1sc(N2CCOCC2)nc1-c1ccccc1,0.0133
18,CSC(=NS(=O)(=O)c1ccc(C)cc1)SC,-0.53
19,Cc1cccc2cc(CN(Cc3ccc(F)cc3)C(=O)N3CCOCC3)c(=O)[nH]c12,-0.501
20,Cc1cccc(NS(=O)(=O)c2ccc(Br)s2)n1,-0.0972
21,c1ccc(-c2cc3ccccc3nc2N2CCCC2)cc1,-0.0621
22,COCC(C)n1c(SCC(=O)N2CCc3ccccc3C2)nc2ccccc2c1=O (stereo unspecified),-1.25
23,S=c1[nH]nc(-c2ccco2)n1/N=C/c1ccccc1Cl,1.07

row,SMILES,z-score
1,Cc1ccc(C(=O)N2CCN(c3ncnc4c3cnn4-c3ccccc3)CC2)cc1,-0.196
2,O=C(COC(=O)c1oc2ccccc2c1COc1ccccc1)NCCN1C(=O)CSC1=O,-0.387
3,COC(=O)c1oc2c(c1C)C1(CCC2)SCCS1,0.0947
4,CC1(C)Cc2noc(N)c2C(C)(C)N1OC(=O)c1ccco1,0.14
5,CCN(CC)c1ccc(NC(=O)c2cccc(C)c2)cc1S(=O)(=O)Nc1ccccc1OC,-0.0661
6,COc1ccc(C(C#N)N2N=C(C)CC2(C)C)cc1 (stereo unspecified),0.173
7,CN(C(=O)c1cc(-n2cnnc2)ccc1Cl)c1ccccc1,-0.0695
8,CCCC(=O)Nc1cc(Cl)ccc1N1CCN(C(=O)CC)CC1,-1.7
9,O=C(Nc1cccc(C(=O)N2CCN(Cc3ccccc3)CC2)c1)c1ccccc1,-0.0123
10,CCN(CC)c1ccc(/C=C(\C#N)C(=O)NCc2ccco2)cc1,-0.684
11,COc1ccc(-c2cc(-c3ccccc3)n3ncnc3n2)cc1,-0.512
12,CCn1c(CSc2nc3ccccc3s2)nnc1SCC(=O)c1ccc(Cl)cc1,-0.409
13,Cc1nc(SCC(=O)N2CC(=O)Nc3ccccc32)c2c(C)c(C)sc2n1,-0.286
14,Cc1ccc(-n2nc(C)c(NC(=O)CCl)c2C)cc1,0.146
15,CCn1c(SCC(=O)c2cc(OC)ccc2OC)nnc1-c1ccncc1,-0.497
16,CC(=O)c1ccc(N2CCN(CCC#N)CC2)c(F)c1,-0.104
17,CCn1ncc(C2=NOC(C(=O)Nc3c(C)nn(Cc4ccc(F)cc4)c3C)C2)c1C (stereo unspecified),-0.475
18,COc1ccc(OC)c(C2/C(=C(/O)c3ccc(C)cc3)C(=O)C(=O)N2Cc2ccco2)c1 (stereo unspecified),-0.543
19,CCOC(=O)N1CCN(c2c(NCCCN3CCCC(C)C3)c(=O)c2=O)CC1 (stereo unspecified),-0.0555
20,Cc1ccc2cc(C=C(C#N)C#N)c(N3CCCCC3)nc2c1,-0.315
21,Fc1ccc(-c2nnc(-c3ccc(Cl)cc3Cl)o2)cc1,1.19
22,Cc1cccn2c(=O)c3cc(C#N)c(=N)n(CCCN4CCOCC4)c3nc12,0.139
23,COCCNC(=O)CN(c1ccccc1OC)S(C)(=O)=O,-0.687

row,SMILES,z-score
1,CCS(=O)(=O)N1CCC(C(=O)NC2CCCCC2)CC1,0.0354
2,O=S(=O)(NCCSc1ccccc1)c1ccc2c(c1)OCCO2,-0.0362
3,CC(C)(C)SCCNC(=O)CN1C(=O)c2ccccc2S1(=O)=O,0.561
4,S=C(NCCc1ccc(Cl)cc1)Nc1ccc(Cl)cc1Cl,1.69
5,O=CNCC(=O)NCCc1ccc(Cl)cc1,-0.44
6,Cc1ccc(-c2ccc(CCC(=O)O)n2NC(=O)c2ccco2)cc1,0.745
7,CCOC(=O)Cc1csc(NC(=O)c2ccc(OC)c(OC)c2)n1,0.0105
8,O=C1CCCC(=O)N1c1ccc(N2CCN(c3ccc([N+](=O)[O-])cc3)CC2)c([N+](=O)[O-])c1,-0.189
9,CCCN1C(=O)S/C(=C\c2ccc(N3CCOCC3)cc2C)C1=O,0.0877
10,CCCOC(=O)CSc1nc(N)c(C#N)c(-c2ccco2)c1C#N,-0.213
11,O=C(COc1ccccc1)N(Cc1ccco1)C1CCS(=O)(=O)C1 (stereo unspecified),0.0735
12,CCOC(=O)N1CCN(C(=O)Cn2ncn3nc(-c4cccs4)cc3c2=O)CC1,0.33
13,Cc1nc(-c2ccccc2)cc(N2CCCC2)n1,-0.306
14,O=C(CN(C(=O)CCC(=O)Nc1nccs1)c1cccc(F)c1)NCC1CCCO1 (stereo unspecified),0.359
15,CCc1nc2sc(C#N)c(N)c2c2c1CCCC2,-0.0957
16,Cc1ccc(C(=O)O)cc1-c1ccc(/C=C2/NC(=O)N(c3ccccc3)C2=O)o1,0.164
17,COc1ccc(-c2cc3nc(C)cc(C)n3n2)cc1,0.202
18,COc1ccc(C(=O)NCCc2nnc(SCC(=O)Nc3ccccc3C(C)C)n2C)cc1,-0.39
19,COc1cc(OC)cc(-c2nnc(SCc3cccc(C(=O)O)c3)o2)c1,-1.4
20,Cc1ccc(SCc2nc3ccccc3[nH]2)cc1,-0.0609
21,CCOC(=O)c1sc(=S)n(-c2ccc(C)cc2)c1SC,-0.0488
22,CCOC(=O)c1c(C)n(-c2ccc(OC)cc2)c2c(C/C(C)=N/O)c(Br)c(OC)c(O)c12,0.0312
23,Cc1ccc(C)n1-c1sc2c(c1C#N)CCC(C)C2 (stereo unspecified),-0.0968

row,SMILES,z-score
1,O=C(COc1ccc(Cl)cc1Cl)NNC(=S)Nc1ccc(F)cc1,active: 7.82
2,O=C(Cn1nnc(-c2ccncc2)n1)Nc1ccc2c(c1)CCC2,-0.151
3,COc1ccc(CNCCc2ccccc2)cc1OCC(N)=O,-0.129
4,COc1ccc(OCc2cccc(C(=O)NN)c2)cc1,-0.336
5,COc1cc(NS(=O)(=O)c2ccc(NC(=S)NC(=O)C3CCCC3)cc2)nc(OC)n1,-0.559
6,Cc1ccsc1C(=O)OCc1nc2ccccc2c(=O)[nH]1,0.0258
7,CCN(CC)CCN1C(=O)C(O)=C(C(=O)c2cccs2)C1c1ccccn1 (stereo unspecified),0.445
8,CCOc1c(Cl)cc(Cl)cc1CNCCNCCO,0.738
9,COC(=O)c1ccc(-n2nnnc2SCC(=O)N2CCCCC2)cc1,-0.0991
10,CC(=O)CCc1oc2ccc(NC(C)=O)cc2c1-c1ccc(C)o1,-0.484
11,O=c1c2c3n(c(=O)nc2[nH]n1-c1ccccc1)CCCCC3,-1.04
12,O=C(Nc1ccc(N2CCN(C(=O)c3ccccc3)CC2)c(Cl)c1)c1cccnc1,-0.512
13,COC(=O)Nc1ccc(C)cc1NC(=O)OC,0.827
14,CCOC(=O)CN1CC23C=CC(O2)C(C(=O)Nc2ccc(F)cc2)C3C1=O (stereo unspecified),-0.522
15,COC(=O)C1=C(O)/C(=C\c2ccc(CNS(=O)(=O)c3ccccc3)o2)N=C1C,-0.112
16,Cc1ccc(S(=O)(=O)N2CCN(C(=O)c3cc4c(C)nn(-c5ccccc5C)c4s3)CC2)cc1,-0.106
17,O=C(Nc1ccccc1)c1nnsc1S(=O)(=O)c1ccc(Cl)cc1,-0.196
18,Nc1ncnc2c1ncn2CCN1CCOCC1,0.113
19,Cc1cc(NC(=O)c2cc3ccccc3oc2=O)no1,0.0723
20,Clc1ccc(Cn2cc(Br)cn2)cc1Cl,0.302
21,C/C(=N\O)C(C)/[N+]([O-])=C/c1nc(C)c(C)n1O (stereo unspecified),1.53
22,Cc1cccc(N(CC(=O)NC2CCCCC2)C(=O)CCCC(=O)Nc2ccccn2)c1,-0.0152
23,O=C(c1ccccc1)N1CCN(c2ccc(NCc3ccc4c(c3)OCO4)cc2)CC1,-1.18

row,SMILES,z-score
1,Cc1ccccc1-c1nc(CN2CCC(C(=O)NCCC3=CCCCC3)CC2)c(C)o1,1.63
2,CC(C)c1c(O)nc(SCC(=O)N2CCOCC2)[nH]c1=O,-0.357
3,O=C(NCC(=O)N(c1ccc(F)cc1)C(C(=O)NCC1CCCO1)c1ccccc1)c1ccco1 (stereo unspecified),-0.245
4,Cc1cccc(NC(=S)NCc2ccccn2)c1,0.216
5,COc1cccc(C(=O)Oc2cccc(N3C(=O)C4C5CC(C(Br)C5Br)C4C3=O)c2)c1 (stereo unspecified),-0.026
6,CCC1(C)Cc2c(sc3nnn(CC(=O)Nc4ccccc4C)c(=O)c23)CO1 (stereo unspecified),-0.515
7,CC(=O)Nc1ccc(S(=O)(=O)NC(C(=O)O)C(C)C)cc1 (stereo unspecified),0.136
8,CCOCC(=O)Nc1nnc(Cc2ccc(OC)c(OC)c2)s1,0.0042
9,Cc1cc(=O)[nH]c(SCCOc2ccc3c(c2)CCC3)n1,0.129
10,COc1ccccc1N(C)S(=O)(=O)c1ccc(C(=O)OCC(=O)c2c[nH]c3ccccc23)cc1,-0.0916
11,CC1=C(C(=O)Nc2ccc(Cl)cc2)C(c2ccco2)NC(=O)N1 (stereo unspecified),0.0306
12,COC(=O)c1cc2sccc2n1CC(=O)Nc1ccc(OC)c(OC)c1OC,-0.315
13,Cc1nc(=O)c(-c2ccccc2)c(C)n1-c1ccc(O)cc1,-1.56
14,O=C(CSc1nnnn1C1CCCCC1)N1c2ccccc2Sc2ccccc21,-1.48
15,CC1CC(CC(C)C(=O)Nc2nncs2)C(=O)O1 (stereo unspecified),-0.122
16,Cc1nc(SCC(=O)NCc2ccccc2)c2oc3ccccc3c2n1,-0.889
17,CS(=O)(=O)Nc1ccccc1C(=O)N1CCOCC1,1.59
18,O=[N+]([O-])c1ccc(N2CCNCC2)cc1Sc1nc2ccccc2[nH]1,-0.0109
19,COC(=O)C1CCCN1C(=O)C1CCCN1C(=O)CNC(=O)OCc1ccccc1 (stereo not drawn) (Cbz-Gly-Pro-Pro-OMe; configuration not given here),-0.518
